Experimental data reported in publication PMC4336329 (PLoS ONE, 2015).
The whole screen tested about 310,000 compounds, of which about 14,000 (4.5%) showed an effect of 50% or more. Effects have a minus sign here. This is one part of the list.

The compounds below were run against human ether-à-go-go-related gene (hERG) potassium channel (human, UniProt Q12809) (assay: primary screen, population patch clamp on CHO cells stably expressing hERG).
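Further: peak tail current of the secondary pulse compared with the same well before compound.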

human ether-à-go-go-related gene (hERG) potassium channel, sequence (Q12809 whole entry, looked up): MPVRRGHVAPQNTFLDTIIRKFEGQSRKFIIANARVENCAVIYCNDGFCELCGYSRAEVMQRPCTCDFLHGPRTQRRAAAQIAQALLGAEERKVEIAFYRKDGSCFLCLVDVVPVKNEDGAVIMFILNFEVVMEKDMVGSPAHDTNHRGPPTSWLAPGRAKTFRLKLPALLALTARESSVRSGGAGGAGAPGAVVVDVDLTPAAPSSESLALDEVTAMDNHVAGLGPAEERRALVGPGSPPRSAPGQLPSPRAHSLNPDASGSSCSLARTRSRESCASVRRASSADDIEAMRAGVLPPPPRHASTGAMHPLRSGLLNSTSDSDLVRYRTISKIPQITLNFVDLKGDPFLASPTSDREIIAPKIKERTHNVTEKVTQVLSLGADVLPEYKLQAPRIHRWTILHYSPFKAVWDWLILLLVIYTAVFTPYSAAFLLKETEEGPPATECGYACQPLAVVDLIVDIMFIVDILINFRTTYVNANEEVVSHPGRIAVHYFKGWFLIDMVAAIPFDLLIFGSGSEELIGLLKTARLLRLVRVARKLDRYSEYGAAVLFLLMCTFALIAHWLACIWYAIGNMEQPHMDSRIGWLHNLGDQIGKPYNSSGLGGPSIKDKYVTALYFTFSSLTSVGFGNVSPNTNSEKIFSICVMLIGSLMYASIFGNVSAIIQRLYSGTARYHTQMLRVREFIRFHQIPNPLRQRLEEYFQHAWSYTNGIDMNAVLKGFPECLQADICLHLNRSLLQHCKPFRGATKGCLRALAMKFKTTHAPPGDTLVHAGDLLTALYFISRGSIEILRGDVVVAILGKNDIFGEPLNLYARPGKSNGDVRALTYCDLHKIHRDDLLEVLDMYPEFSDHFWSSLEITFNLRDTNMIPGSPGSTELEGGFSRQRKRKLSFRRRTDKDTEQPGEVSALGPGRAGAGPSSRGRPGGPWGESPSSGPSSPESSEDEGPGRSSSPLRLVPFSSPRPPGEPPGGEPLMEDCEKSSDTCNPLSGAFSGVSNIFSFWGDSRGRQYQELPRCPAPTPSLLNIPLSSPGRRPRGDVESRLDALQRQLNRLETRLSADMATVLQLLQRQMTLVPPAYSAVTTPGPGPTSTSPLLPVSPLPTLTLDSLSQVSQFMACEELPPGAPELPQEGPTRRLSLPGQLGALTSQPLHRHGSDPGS

Row | SMILES | hERG current change (%, negative = inhibition) at 10uM [%]
1 | Cc1cccc(C(=O)OCC(=O)N2CC(C)OC(C)C2)c1C (stereo not drawn) | 11.9
2 | CCOc1cc(/C=C2\SC(=N)N(c3nonc3N)C2=O)ccc1OCC(N)=O | 7.01
3 | CCCN1CCN(C(=O)CCCNC(=O)Cn2cnc3sc(C)c(C)c3c2=O)CC1 | 14
4 | Cc1cccc(NC(=O)NNC(=O)COc2ccc([N+](=O)[O-])cc2)c1C | 0.136
5 | O=C(O)CC1NC(=O)N(c2ccc(Cl)cc2)C1=O (stereo not drawn) | 19.5
6 | CCN(CC)S(=O)(=O)c1cc(C(=O)O)c(Cl)cc1Cl | 25.4
7 | COc1ccc(OC)c(C2=NOC(C(=O)NCc3cccnc3)C2)c1 (stereo not drawn) | -62
8 | CCOC(=O)C(/C=C(\C#N)C(=O)OCC)=C(/N)N1CCN(c2ccc(OC)cc2)CC1 | 2.49
9 | COc1ccc(N(C(=O)c2ccco2)C(C(=O)NC2CCCC2)c2cccs2)c(OC)c1 (stereo not drawn) | -12.8
10 | CC(=O)c1ccccc1NC(=O)COC(=O)c1ccccc1NC(=O)c1ccccc1 | -16.1
11 | CC(=O)Nc1ccc(S(=O)(=O)N2CCSC2c2ccc(C)cc2)cc1 (stereo not drawn) | 2.9
12 | CCCS(=O)(=O)Nc1ccc2cn[nH]c2c1 | 11.7
13 | c1ccc(CNc2ncnc3c2cnn3Cc2ccccc2)cc1 | -22
14 | CC12CC3CC(C)(C1)CC(C(=O)NCc1cccnc1)(C3)C2 | -11.6
15 | CCOc1ccc(N2C(=O)c3cccnc3C2Nc2ccc(F)cc2)cc1 (stereo not drawn) | -10.9
16 | CCOc1ccc(C(=O)NCC(=O)NCC(c2ccc(OC)cc2)N2CCCC2)cc1 (stereo not drawn) | -4.71
17 | O=C(NC(Cc1ccccc1)C(=O)O)/C(=C/c1ccco1)NC(=O)c1cccc(Br)c1 (stereo not drawn) | 8.9
18 | O=C(Nc1ccc(Cl)cc1)N(C1=NCCC1)c1ccc(OC(F)F)cc1 | -8.02
19 | COCCCn1c(SCC(=O)NC2CCS(=O)(=O)C2)nnc1-c1ccc(Cl)cc1 (stereo not drawn) | 10.5
20 | CC(=O)N/C(=C\c1ccccc1)C(=O)OCC(=O)c1ccc(F)cc1 | -16.4
21 | CCN(CC)S(=O)(=O)c1ccc(/C=C/C(=O)OCC(=O)NCc2cccs2)cc1 | -39.3
22 | Cc1ccc(S(=O)(=O)Nc2cc(=O)[nH]c3c2CCC3)cc1 | -6.49

Row | SMILES | hERG current change (%, negative = inhibition) at 10uM [%]
23 | CC(C)c1ccc(/C=C2\SC(=O)N(CC(=O)NC3CCS(=O)(=O)C3)C2=O)cc1 (stereo not drawn) | 14.7
24 | COc1ccccc1C(C)NCC(=O)Nc1ccccc1C(F)(F)F.O=C(O)C(=O)O (stereo not drawn) | -14.1
25 | CCCc1nn(C)c(C(=O)Nc2cccc3ccccc23)c1Cl | 6.06
26 | O=C(CSc1nc(=O)n2cc(Cl)ccc2n1)NCCc1ccccc1 | -36.7
27 | COc1ccccc1N1CCN(c2ccc3ccccc3n2)CC1 | -36.5
28 | CC1CCN(C(=S)NC2CC3CCC2C3)CC1 (stereo not drawn) | -8.35
29 | COc1ccc(-c2nnc(SCc3ccc(C(=O)O)cc3)o2)cc1OC | 13.7
30 | O=C(OCc1csc(Nc2ccccc2)n1)c1ccc(Cl)cc1 | 7.76
31 | C=CCNC(=O)c1nn2cccnc2c1Cl | 12.7
32 | COC(=O)Cn1cc(C(=O)c2cccs2)c2ccccc21 | -5.76
33 | CCC(=O)NCCc1nc2cc(NC(=O)Nc3ccccc3)ccc2n1C | 18.8
34 | CSCCC(NS(=O)(=O)c1ccccc1F)C(=O)NCC(C)(C)N1CCOCC1 (stereo not drawn) | -4.05
35 | CN(C)N1C(N)=C(C#N)C(c2ccc(Cl)cc2)C2=C1CCCC2=O (stereo not drawn) | -20.1
36 | CCOc1ccccc1CN1CCN(Cc2cn(C)nc2-c2ccccc2)CC1CCO (stereo not drawn) | -65.6
37 | Cc1ccc(CNC(=O)[C@H](Cc2ccccc2)NC(=O)C2CCNCC2)cc1 | -9.1
38 | COc1cc(OC)cc(-c2cc3nc(C)c(CCC(=O)NCc4ccccc4)c(C)n3n2)c1 | -33.8
39 | CC#CCN1c2ccccc2[C@]23C[C@@H](C(=O)OC)N(C(=O)C4CCC4)C2=NC(C(=O)OC)=C(C(=O)OC)[C@H]13 | -10
40 | COc1ccc(CCNC(=O)c2cc(C(=O)c3cc(Cl)ccc3O)cn(CCc3ccc(OC)cc3)c2=O)cc1 | -3.37
41 | CC1CCCC(NC(=O)COC(=O)c2ccc(N(C)C)cc2)C1C (stereo not drawn) | -1.77
42 | O=c1cc(-c2cccnc2)oc2c1ccc1ccccc12 | -25.6
43 | CCOc1ccc(S(=O)(=O)N2CCCC(C(=O)NCC3CCCO3)C2)cc1Cl (stereo not drawn) | -17.4
44 | Brc1ccc(OCc2nnc3n2CCC3)cc1 | -14

Row | SMILES | hERG current change (%, negative = inhibition) at 10uM [%]
45 | CCc1ccc(-n2c(SCC(=O)Nc3cc(C)[nH]n3)nc3[nH]ncc3c2=O)cc1 | -9.53
46 | Cc1cccc(N2CCN(C(=O)CCCn3c(=O)c4cccn4c4cccnc43)CC2)c1C | -34.1
47 | CC(C)(C)c1nc(S(=O)(=O)c2ccc(Cl)cc2)c(N2CCOCC2)o1 | -14.2
48 | C=CCOc1ccc(CNc2ccc(NC(=O)CC(C)C)cc2)cc1OC | 12.2
49 | CSc1ccc(Cl)c(C(=O)OCC(=O)Nc2ccccc2OC(F)F)c1 | 0.448
50 | Oc1[nH]c2ccccc2c1N=Nc1ccc(F)cc1 | 10.9
51 | CCNC(=O)n1nccc1C(C)Oc1ccccc1 (stereo not drawn) | -29.4
52 | Cc1ccc2cc(CN(C(=O)c3ccco3)c3ccccc3C)c(=O)[nH]c2c1 | -3.3
53 | Nc1cccc(-c2cn(-c3cc4cc(C#CC5(O)CCCCC5)ccc4oc3=O)nn2)c1 | 14.8
54 | CCNc1nc(NCC)n2c(SCc3nc4ccccc4c(=O)[nH]3)nnc2n1 | 7.42
55 | COc1ccccc1-n1c(O)c(C=NCCN2CCNCC2)c(=O)[nH]c1=O | 14.4
56 | Cc1ccc(C)c(OCC(O)CN2CCC(CN3C(=O)c4cccc5cccc(c45)C3=O)CC2)c1.Cl (stereo not drawn) | -68.2
57 | O=C(COC(=O)Cc1c(Cl)cccc1Cl)Nc1ccccc1-c1ccccc1 | -0.758
58 | CCc1nnc(NS(=O)(=O)c2ccc(N/C=C\C(=O)c3cccc4ccccc34)cc2)s1 | 1.69
59 | Cn1c(CC(=O)NNC(=O)c2ccc(F)cc2Cl)nc2ccccc21 | -7.88
60 | CCOC(=O)N1CCN(C(=O)CCS(=O)(=O)c2ccc3c(c2)CCN3C(=O)CC)CC1 | 14.4
61 | COc1ccc(C2=NN(C(=O)COc3ncnc4ccccc34)C(c3ccco3)C2)cc1 (stereo not drawn) | 5.03
62 | Cc1cccc(OCCCC(=O)N2CCCc3ccccc32)c1C | 14.1
63 | CCOc1ccc(N(C(C)C(=O)N2CCCCCC2)S(C)(=O)=O)cc1 (stereo not drawn) | -6.65
64 | O=C(O)c1c2c(nc3ccccc13)/C(=C/c1ccc(O)cc1)CCC2 | -0.0981
65 | Cc1[nH+]csc1CCOC(=O)c1ccc(N2CCOCC2)c([N+](=O)[O-])c1.[Cl-] | -21.2
66 | COc1ccc(CCNC(=O)CC2Oc3ccc(Cl)cc3NC2=O)cc1OC (stereo not drawn) | -25.9

Row | SMILES | hERG current change (%, negative = inhibition) at 10uM [%]
67 | COc1ccc2[nH]c(=O)c(-c3noc(-c4ccccc4)n3)cc2c1 | -0.646
68 | O=C(O)Cc1ccccc1C(=O)O | -7.48
69 | CC(CNC(=O)C1CCCCC1C(=O)O)c1ccccc1 (stereo not drawn) | -0.787
70 | CCOC(=O)c1ccc(S(=O)(=O)NC2CCCCCCC2)n1C | -12.4
71 | CN(Cc1nc(-c2ccccc2)no1)C(=O)c1ccco1 | 16.8
72 | CCN(CC)CCSc1nc2ccccc2c(=S)n1-c1ccccc1.Cl | -51.9
73 | COC(=O)c1ccccc1CC1SC(N)=NC1=O (stereo not drawn) | 24.6
74 | CCOC(=O)C1CCN(C(=O)C2CCN(c3nc4ccc(OC)cc4s3)CC2)CC1 | -67.6
75 | Cc1cn2c(nc1=O)OC1CC2OC1CO (stereo not drawn) | 13.9
76 | C=CCOC(=O)C1=C(C)Nc2ncnn2C1c1cc(Br)ccc1F (stereo not drawn) | 3.99
77 | O=C1Nc2ccccc2/C1=C/c1ccccc1F | 26.3
78 | COc1ccccc1CNC(=O)CC(NS(=O)(=O)c1ccc(C)cc1)c1ccco1 (stereo not drawn) | -4.33
79 | COCCNC(=O)CN(Cc1ccccc1)C(=O)CCC(=O)Nc1nccs1 | 16.4
80 | CNc1nc(Oc2ccc(=O)n(C)n2)nc(N2CCOCC2)n1 | 0.884
81 | Cc1ccc(N=C(/N=C(\N)N[N+](=O)[O-])Nc2ccc(C)cc2)cc1 | -0.621
82 | OC(CNCc1ccc(Cl)cc1)(c1ccccc1)c1ccc(F)cc1 (stereo not drawn) | -4.52
83 | CCOC(=O)Cc1csc(NC(=O)c2ccco2)n1 | 0.229
84 | C=CCNC(=O)C1CC(=O)N(c2ccc(OCC(=O)N3CCCC3)cc2)C1 (stereo not drawn) | 18.2
85 | COC(=O)C(C)Sc1nnc(SC(C)C(=O)OC)s1 (stereo not drawn) | 22.3
86 | Cn1c(O)c(N=NC(=O)Cn2c(C(F)(F)F)nc3ccccc32)c2ccccc21 | 6.02
87 | Cc1ccc(N=Cc2c(O)c3ccccc3n(C)c2=O)cc1 | 16.6
